Article PMC4778132 (2016)

T1: GST-CCR10 CT (C-terminal cytoplasmic tail of human CCR10 fused to GST) (human, UniProt P46092 314-362)
T1 chain: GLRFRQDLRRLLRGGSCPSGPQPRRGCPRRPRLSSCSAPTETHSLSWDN


Molecular target: T1, GST-CCR10 CT (C-terminal cytoplasmic …)
Test: SPR

Row | Kd [nM] | Binder
1 | 442 | HIS-tagged human S100A10 mutant C82S (natural protein) not shown
2 | 206 | HIS-tagged human S100A10 mutant C82Q (natural protein) not shown
3 | 1350 | HIS-tagged human S100A10 mutant 85Stop (domain or fragment) not shown
